Measurements reported in a melting point compilation (Tetko et al.; mined from patent text by program, amines drawn as free bases though some values may be those of a salt).

Compound CCOC(=O)C1=C(CC)Nc2n[nH]cc2C1c1cccc2nonc12 (stereo unspecified) has a melting point of 196 °C.
